This note sets out measurements from article PMC8052441, “Structural insight into the molecular mechanism of p53-mediated mitochondrial apoptosis” (Nature Communications, 2021).

The target of this assay is T1, p53-DT (human p53 DBD and tetramerization domain, amino acids 92-360) (human, UniProt P04637 92-360).
T1 construct: human p53, DBD and tetramerization domain, amino acids 92-360; Tetramer in solution by gel filtration and cross-linking; also called wild-type p53-DT; not shown: His6, N-terminal, cleaved
Put plainly: ITC; p53 protein (100 µM) titrated into 10–30 µM BCL-xL or BCL-2; 25 °C; 50 mM Tris pH 7.0, 40 mM NaCl, 1 mM TCEP. The conditions noted are these: both partners purified. On the technique in general: ITC needs no label: the signal is the heat of the interaction.

B1: BCL-2 (human, […]) (domain or fragment)
chain: not shown
notes: human BCL-2, […]; Cloned into pET-28a
In general, Kd refers to the concentration at which binding is half-saturated. B1 came in with a Kd of 3.3 µM.
